The values below come from the supplement of paper PMC12645437, “Orthogonal IMiD-Degron Pairs Induce Selective Protein Degradation in Cells” (ACS Chemical Biology, 2025).

This is one part of the list.

The chains are these.
B1: Q9UKT9 (peptide)
chain: FKCPICGHPFTQKGNLLRHIKL
B2: Q9UKT9 (peptide)
chain: FSCSVCGHKFTQKGNLLRHIKL
B3: Q9UKT9 (peptide)
chain: FCCEICGATFTQKGNLLRHIKL
B4: Q9UKT9 (peptide)
chain: FVCPICGHRFTQKGNLLRHIKL
B5: Q9UKT9 (peptide)
chain: FVCEICGRHFTQKGNLLRHIKL
B6: Q9UKT9 (peptide)
chain: FKCEQCGAQFTQKGNLLRHIKL
B7: Q9UKT9 (peptide)
chain: LCCPICGFSCTQKGNLLRHIKL
B8: Q9UKT9 (peptide)
chain: FSCDICGANFTQKGNLLRHIKL
B9: Q9UKT9 (peptide)
chain: FQCNVCGARFTQKGNLLRHIKL
B10: Q9UKT9 (peptide)
chain: FMCDQCGADFTQKGNLLRHIKL
B11: Q9UKT9 (peptide)
chain: FECDICGASFTQKGNLLRHIKL
B12: Q9UKT9 (peptide)
chain: FECEICGAKFTQKGNLLRHIKL
B13: Q9UKT9 (peptide)
chain: FRCEQCGAKFTQKGNLLRHIKL
B14: Q9UKT9 (peptide)
chain: FKCPQCGAVFTQKGNLLRHIKL
B15: Q9UKT9 (peptide)
chain: FFCNQCGRKFTQKGNLLRHIKL
B16: Q9UKT9 (peptide)
chain: FECEVCGANFTQKGNLLRHIKL
B17: Q9UKT9 (peptide)
chain: FMCNVCGAAFTQKGNLLRHIKL
B18: Q9UKT9 (peptide)
chain: FYCDVCGAVFTQKGNLLRHIKL
B19: Q9UKT9 (peptide)
chain: FKCDQCGAHFTQKGNLLRHIKL
B20: Q9UKT9 (peptide)
chain: FGCDVCGANFTQKGNLLRHIKL
B21: Q9UKT9 (peptide)
chain: LFCNQCGFPCTQKGNLLRHIKL
B22: Q9UKT9 (peptide)
chain: FFCEICGHAFTQKGNLLRHIKL
B23: Q9UKT9 (peptide)
chain: FVCPVCGACFTQKGNLLRHIKL
B24: Q9UKT9 (peptide)
chain: FYCNVCGAKFTQKGNLLRHIKL
B25: Q9UKT9 (peptide)
chain: FLCNICGAGFTQKGNLLRHIKL
B26: Q9UKT9 (peptide)
chain: LNCPICGFNCTQKGNLLRHIKL
B27: Q9UKT9 (peptide)
chain: FNCEICGRSFTQKGNLLRHIKL
B28: Q9UKT9 (peptide)
chain: FWCNQCGRLFTQKGNLLRHIKL
B29: Q9UKT9 (peptide)
chain: FHCSVCGHPFTQKGNLLRHIKL
B30: Q9UKT9 (peptide)
chain: FYCEICGALFTQKGNLLRHIKL
B31: Q9UKT9 (peptide)
chain: LGCPICGFICTQKGNLLRHIKL
B32: Q9UKT9 (peptide)
chain: FYCDVCGADFTQKGNLLRHIKL
B33: Q9UKT9 (peptide)
chain: FQCEICGHPFTQKGNLLRHIKL
B34: Q9UKT9 (peptide)
chain: FKCNICGAYFTQKGNLLRHIKL
B35: Q9UKT9 (peptide)
chain: FICNQCGAPFTQKGNLLRHIKL
B36: Q9UKT9 (peptide)
chain: FVCPVCGAFFTQKGNLLRHIKL
B37: Q9UKT9 (peptide)
chain: FVCPICGHYFTQKGNLLRHIKL
B38: Q9UKT9 (peptide)
chain: LWCEICGFICTQKGNLLRHIKL
B39: Q9UKT9 (peptide)
chain: FFCNVCGAMFTQKGNLLRHIKL
B40: Q9UKT9 (peptide)
chain: FHCPVCGAKFTQKGNLLRHIKL
B41: Q9UKT9 (peptide)
chain: FNCEICGHSFTQKGNLLRHIKL
B42: Q9UKT9 (peptide)
chain: LDCNQCGFMCTQKGNLLRHIKL
B43: Q9UKT9 (peptide)
chain: FICNQCGAGFTQKGNLLRHIKL
B44: Q9UKT9 (peptide)
chain: FCCPICGHHFTQKGNLLRHIKL
B45: Q9UKT9 (peptide)
chain: FHCDQCGAGFTQKGNLLRHIKL
B46: Q9UKT9 (peptide)
chain: FYCPVCGAMFTQKGNLLRHIKL
B47: Q9UKT9 (peptide)
chain: FDCNQCGAVFTQKGNLLRHIKL
B48: Q9UKT9 (peptide)
chain: FCCEICGRSFTQKGNLLRHIKL
B49: Q9UKT9 (peptide)
chain: FVCEICGHAFTQKGNLLRHIKL
B50: Q9UKT9 (peptide)
chain: FCCEICGAEFTQKGNLLRHIKL
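Further: jurkat cells carrying a lentiviral library of mutant zinc finger degrons fused to EGFP plus mCherry, mCherry+ cells FACS sorted, degron abundance counted by next-generation sequencing.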

The target in the assay is no compound (DMSO). Nature of the assay: log2 fold change of degron read counts, EGFP-low vs EGFP+ sorted cells; higher = lower degron-EGFP level without compound (poor expression or instability). As to conditions: compound: DMSO control; 18 h.
As for B1, the “log2 fold change of degron read counts” value is -0.241.
For B2, the “log2 fold change of degron read counts” value is -1.33.
Consider B3, for which the “log2 fold change of degron read counts” value is -1.42.
In the case of B4 it was -0.912.
Take B5: the “log2 fold change of degron read counts” value is -1.28.
In the case of B6 it was -2.33; in that of B7, 0.443; in that of B8, -1.93.
Turning to B9, the “log2 fold change of degron read counts” value is -0.445.
For B10, the “log2 fold change of degron read counts” value is -1.57.
In the case of B11 it was -2.36.
B12: the “log2 fold change of degron read counts” value was -1.35.
Next, B13: -1.43; B14: -1.14.
In the case of B15 it was -0.481.
Next, B16: -1.9.
For the sequence B17, the “log2 fold change of degron read counts” value is -1.21.
Regarding B18, the “log2 fold change of degron read counts” value was -0.413.
As to B19, the “log2 fold change of degron read counts” value was -1.33.
Next, B20: -2.17.
Next, B21: 1.
Next, B22: -1.09.
For the sequence B23, the “log2 fold change of degron read counts” value is -0.469.
As to B24, the “log2 fold change of degron read counts” value is -1.09.
Take B25: the “log2 fold change of degron read counts” value is -0.567.
Next, B26: 0.467.
Next, B27: -1.28; B28: 1.5; B29: 0.343.
Consider B30, for which the “log2 fold change of degron read counts” value was -0.418.
Next, B31: 1.64; B32: -2.14.
Next, B33: -0.749; B34: -0.617.
In the case of B35 it was -0.672.
On to B36, for which the “log2 fold change of degron read counts” value turned out to be 0.6.
In the case of B37 it was 0.0571; in that of B38, 2.83; in that of B39, 0.769.
In the case of B40 it was -0.591.
For the sequence B41, the “log2 fold change of degron read counts” value is -1.79.
Consider B42, for which the “log2 fold change of degron read counts” value came out at 1.01.
As for B43, the “log2 fold change of degron read counts” value was -1.02.
B44: the “log2 fold change of degron read counts” value stood at 0.25.
B45: the “log2 fold change of degron read counts” value is -0.952.
For B46, the “log2 fold change of degron read counts” value was -0.103.
In the case of B47 it was -0.594; in that of B48, -2.07.
For B49, the “log2 fold change of degron read counts” value was -2.03.
In the case of B50, the “log2 fold change of degron read counts” value is -1.56.
